Laboratory results reported in patent US9694024B2 (priority 2010, dated 2017).
Read-outs that look alike come from different tables or passages of the source.

Columns and labels:
[1] = test system: NRTI resistant HIV; test: microbe, parasite or virus in culture; type: cell-based
[2] = test system: NRTI-resistant HIV; test: microbe, parasite or virus in culture; type: cell-based

Q: Which “fold more potent than tenofovir (TFV) against HIV” value [1] does the source give for CCCCCCCCCCCCCCCCOCCCOP(=O)(O)CO[C@H](C)Cn1cnc2c(N)ncnc21 [CMX157, 3-(hexadecyloxy)propyl hydrogen ((R)-1-(6-amino-9H-purin 9-yl)propan-2-yloxy)methylphosphonate] here?
A: greater than 300 fold

Q: What about the EC50 ([1]; Human immunodeficiency virus 1, read-out: EC50, PHENOSENSE assay, 62V/69SVG/75I/215I) of the same compound?
A: 57 nM

Q: And the EC50 ([1]; Human immunodeficiency virus 1, read-out: EC50, PHENOSENSE assay, 74V/184V)?
A: 0.66 nM

Q: And the EC50 ([1]; Human immunodeficiency virus 1, read-out: EC50 for M41L/L210W/T215Y mutants, average)?
A: 6.3 nM

Q: And the IC50 ([1]; Human immunodeficiency virus 1, read-out: IC50 for 41L/210W/215Y, average, with 184V)?
A: 2.2 nM

Q: And the IC50 ([1]; Human immunodeficiency virus 1, read-out: IC50 for 41L/210W/215Y, average, without 184V)?
A: 6.3 nM

Q: What about the IC50 ([1]; Human immunodeficiency virus 1, read-out: IC50s against NRTI resistant HIV in a PHENOSENSE assay) of the same compound?
A: 1 to 57 nM

Q: And the IC50 ([2]; Human immunodeficiency virus 1, PBMC, HIV RT genotype 41L/67N/70R/215F/219E, PBMCs)?
A: 3.8 nM

Q: What about the IC50 ([2]; Human immunodeficiency virus 1, PBMC, HIV RT genotype 41L/67N/210W/215Y, PBMCs) of the same compound?
A: 19 nM

Q: And the IC50 ([2]; Human immunodeficiency virus 1, PBMC, HIV RT genotype 41L/67N/210W/215Y/184V, PBMCs)?
A: 3.1 nM

Q: What about the IC50 ([2]; Human immunodeficiency virus 1, PBMC, HIV RT genotype 41L/210W/215Y/184V/69SSS, PBMCs) of the same compound?
A: 9 nM

Q: What about the IC50 ([2]; Human immunodeficiency virus 1, PBMC, HIV RT genotype 65R/184V, PBMCs) of the same compound?
A: 1.8 nM

Q: And the IC50 ([2]; Human immunodeficiency virus 1, PBMC, HIV RT genotype 75I/77L/116Y/151M/184V, PBMCs)?
A: 5 nM

Q: What about the IC50 ([2]; Human immunodeficiency virus 1, PBMC, read-out: IC50s against NRTI resistant HIV in PBMCs) of the same compound?
A: 2 to 19 nM

Q: What about the “fold more potent than tenofovir” value ([2]; NRTI resistant HIV in PBMCs) of the same compound?
A: 500-1000 fold

Q: Which EC50 ([1]; 62V/69SVG/75I/215I, read-out: EC50, PHENOSENSE assay) does the source give for C[C@H](Cn1cnc2c(N)ncnc21)OCP(=O)(O)O [Tenofovir, (R)-9-(2-phosphonylmethoxypropyl)adenine, reference compound] here?
A: 17000 nM

Q: And the EC50 ([1]; 74V/184V, read-out: EC50, PHENOSENSE assay)?
A: 227 nM

Q: And the EC50 ([1]; read-out: EC50 for M41L/L210W/T215Y mutants, average)?
A: 2240 nM

Q: And the IC50 ([1]; with 184V, read-out: IC50 for 41L/210W/215Y, average)?
A: 770 nM

Q: What about the IC50 ([1]; without 184V, read-out: IC50 for 41L/210W/215Y, average) of the same compound?
A: 2240 nM

Q: What about the IC50 ([2]; HIV RT genotype 41L/67N/70R/215F/219E, PBMCs, read-out: IC50) of the same compound?
A: 6520 nM

Q: What about the IC50 ([2]; HIV RT genotype 41L/67N/210W/215Y, PBMCs, read-out: IC50) of the same compound?
A: > 8510 nM

Q: And the IC50 ([2]; HIV RT genotype 41L/67N/210W/215Y/184V, PBMCs, read-out: IC50)?
A: 5390 nM

Q: What about the IC50 ([2]; HIV RT genotype 41L/210W/215Y/184V/69SSS, PBMCs, read-out: IC50) of the same compound?
A: > 6470 nM

Q: And the IC50 ([2]; HIV RT genotype 65R/184V, PBMCs, read-out: IC50)?
A: 1040 nM

Q: What about the IC50 ([2]; HIV RT genotype 75I/77L/116Y/151M/184V, PBMCs, read-out: IC50) of the same compound?
A: > 6490 nM
